The test system of this experiment is 616215-338-R-J1-PDC spheroids with HUVEC/MSC, viability. Briefly: Anticancer human tumor 616215-338-R-J1-PDC patient-derived colon adenocarcinoma cell line growth inhibition [PI3K]. As to conditions: for viability, T/C: stronger effect = lower value; for IC50: compound alone. The text has this:
Combinatorial screen of targeted agents with the PI3K inhibitors inavolisib, alpelisib, duvelisib, and copanlisib in multi-cell type tumor spheroids
A high-throughput screen of multi-cell type tumor spheroids was designed to identify active combinations of targeted small molecules and PI3K pathway inhibitors. Complex spheroids include a stromal component modeled by human endothelial cells (HUVEC) and fibroblasts modeled by human mesenchymal stem cells (MSCs). The concentration ranges selected for each drug and investigational agent were based upon clinically achievable concentrations if the clinical Cmax of the agent was known.
Compounds. The drugs and investigational agents: inavolisib (NSC800729), alpelisib (NSC765974), duvelisib (NSC772469), copanlisib (NSC816437), ipatasertib (NSC767898), afuresertib (NSC778305), talazoparib (NSC767125), sapanisertib (NSC764658), selumetinib (NSC741078), tovorafenib (DAY101, NSC766906), vemurafenib (NSC761431), ravoxertinib (NSC781343), sotorasib (NSC818433), MRTX1133 (NSC 836407), abemaciclib (NSC 768073), palbociclib (NSC758247), venetoclax (NSC 766270), SY5609 (NSC837396), enzalutamide (NSC755605), and darolutamide (NSC825331), were obtained from the National Cancer Institute (NCI) Developmental Therapeutics Program Chemical Repository. The FDA-approved anticancer drug set is available from the NCI Developmental Therapeutics Program. […] The stock solutions were prepared in dimethyl sulfoxide (DMSO, Sigma-Aldrich, St. Louis, MO, cat. D2650) at 800-fold the tested concentration and stored at -70 degrees C prior to their use. All drugs and investigational agents were tested over a range starting from a high concentration at or near the clinical Cmax and decreasing in half-log increments. If the clinical Cmax for an agent had not been determined, the highest concentration tested was 10 microM.
Cell Culture. All cells were maintained in an incubator at 37 degrees C and 5% CO2 with 95% humidity. The PDC lines were cultured according to standard operating procedures established by the NCI PDMR (https://pdmr.cancer.gov/sops/default.htm). All PDCs were thawed and cultured in Matrigel-coated flasks prepared with a working solution of 1X Ham's F-12 nutrient mix, without supplementation (Invitrogen, Waltham, MA, cat. 11765054), 100 U/mL penicillin-streptomycin (Invitrogen, cat. 15140122), and 2.5% Matrigel (Corning Inc., Corning, NY, cat. 354248) for the first three passages. The 354836-022-R-J1-PDC, 475296-252-R-J1-PDC, and 997726-040-R-J2-PDC lines were cultured in 6A media, which includes advanced DMEM/F-12 (Thermo Fisher Scientific, cat. 12634028), 10 mM HEPES (Thermo Fisher Scientific, cat. 15630080), 1X GlutaMAX supplement (Thermo Fisher Scientific, cat. 35050061), 0.1 mg/mL primocin (InvivoGen, San Diego, CA, cat. ant-pm-2), 10% defined fetal bovine serum, heat inactivated (HyClone Laboratories Inc., Logan, UT, cat. SH30070.03HI), 50% L-WRN conditioned media (ATCC, cat. CRL-3276), 1.25 mM N-Acetyl-L-cysteine (Sigma-Aldrich, cat. A9165), 10 mM nicotinamide (Sigma-Aldrich, cat. N0636), 1X B-27 supplement (Thermo Fisher Scientific, cat. 17504044), 1X N-2 supplement (Thermo Fisher Scientific, cat. 17502048), and 10 microM Y-27632 dihydrochloride (Tocris Bioscience, Bristol, United Kingdom, cat. 1254). The 624824-186-R-J2-PDC line was cultured in 6C/Colon 1B media, which includes all 6A media components plus 50 ng/mL human EGF recombinant protein (Thermo Fisher Scientific, cat. PHG0311). […]

This note sets out measurements from PubChem BioAssay AID1963978 (Molecular Pharmacology Branch, DTP, NCI, 2024).

The source holds more than one record for some entries. This is not the full list of results. The source may hold further records. Results that share an entry are repeated measurements (runs, samples, wells, individuals or studies). Where only a bound is given, the exact number is not on record here.
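Note: spheroids exposed to agents for seven days before the viability read.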

As for `C=CC(=O)N1CCN(c2nc(=O)n(-c3c(C)ccnc3C(C)C)c3nc(-c4c(O)cccc4F)c(F)cc23)C(C)C1` (stereo not given), under “compound alone 10 µM”, the viability, T/C was 92.3, 98.4, 85.9, 71.3%.

For the compound `CC(C)NCC(C(=O)N1CCN(c2ncnc3c2C(C)CC3O)CC1)c1ccc(Cl)cc1` (stereo not given), the viability, T/C (compound alone 10 µM) was 48, 34, 25.6, 22.6%.

On to `CCN1CCN(Cc2ccc(Nc3ncc(F)c(-c4cc(F)c5nc(C)n(C(C)C)c5c4)n3)nc2)CC1`, for which the viability, T/C reads like this: (compound alone 0.316 µM) 114, 105, 146, 113%; (compound alone 1 µM) 115, 105, 108, 85.2%.

Turning to `Cn1ncc(Cl)c1-c1cc(C(=O)NC(CN)Cc2cccc(F)c2)sc1Cl` (stereo not given), where the note is “compound alone 3.16 µM”, the viability, T/C is on record as 83.4, 74.5, 61.6, 57.4%.

In the case of `CCCS(=O)(=O)Nc1ccc(F)c(C(=O)c2c[nH]c3ncc(-c4ccc(Cl)cc4)cc23)c1F`, under “compound alone 3.16 µM”, the viability, T/C is 59.8, 68.4, 68.9, 85.3%.

As to `CC(Cn1ccc(-c2ccc(C#N)c(Cl)c2)n1)NC(=O)c1cc(C(C)O)[nH]n1` (stereo not given), the viability, T/C is listed as 94.3, 109, 82.5, 91.4% (compound alone 0.1 µM) and 95.8, 103, 97.8, 124% (compound alone 3.16 µM).

`CC1(C)CCC(Nc2ncc(C(F)(F)F)c(-c3c[nH]c4c(P(C)(C)=O)c(C#N)ccc34)n2)CN1` (stereo not given): the IC50 is 3.57 µM, 3.52 µM, < 31.6 nM. Also, the viability, T/C (compound alone 0.0316 µM) was 67.2, 45.5, 36.5, 41.2%. Moreover, the viability, T/C (compound alone 0.316 µM) is reported as 65.1, 59.3, 36.2, 50.8%.

Take `CC1(C)CCC(CN2CCN(c3ccc(C(=O)NS(=O)(=O)c4ccc(NCC5CCOCC5)c([N+](=O)[O-])c4)c(Oc4cnc5[nH]ccc5c4)c3)CC2)=C(c2ccc(Cl)cc2)C1`: the IC50 is given as 4.72 µM, 4.82 µM, 4.69 µM, > 10 µM. Where the note is “compound alone 0.0316 µM”, the viability, T/C was 93.2, 89, 115, 88.1%. Further, the viability, T/C (compound alone 10 µM) was 2.4, 2.03, 3.47, 107%.

As for `Cn1cnc2c(F)c(Nc3ccc(Br)cc3Cl)c(C(=O)NOCCO)cc21`, the IC50 was > 3 µM, 1.07 µM, 1.56 µM, 1.98 µM.
